{
  "source": "PubChem BioAssay AID488969",
  "about": "(Vanderbilt High Throughput Screening Facility, 2010)",
  "note": "Over roughly 110,000 compounds, “z-score” has its median near -0.1; the highest 2% begin near 2. The list shows a part of the results.",
  "data": [
    {"target": "Metabotropic glutamate receptor 8 (Rattus norvegicus) (UniProt P70579)", "sequence (P70579 whole entry, looked up)": "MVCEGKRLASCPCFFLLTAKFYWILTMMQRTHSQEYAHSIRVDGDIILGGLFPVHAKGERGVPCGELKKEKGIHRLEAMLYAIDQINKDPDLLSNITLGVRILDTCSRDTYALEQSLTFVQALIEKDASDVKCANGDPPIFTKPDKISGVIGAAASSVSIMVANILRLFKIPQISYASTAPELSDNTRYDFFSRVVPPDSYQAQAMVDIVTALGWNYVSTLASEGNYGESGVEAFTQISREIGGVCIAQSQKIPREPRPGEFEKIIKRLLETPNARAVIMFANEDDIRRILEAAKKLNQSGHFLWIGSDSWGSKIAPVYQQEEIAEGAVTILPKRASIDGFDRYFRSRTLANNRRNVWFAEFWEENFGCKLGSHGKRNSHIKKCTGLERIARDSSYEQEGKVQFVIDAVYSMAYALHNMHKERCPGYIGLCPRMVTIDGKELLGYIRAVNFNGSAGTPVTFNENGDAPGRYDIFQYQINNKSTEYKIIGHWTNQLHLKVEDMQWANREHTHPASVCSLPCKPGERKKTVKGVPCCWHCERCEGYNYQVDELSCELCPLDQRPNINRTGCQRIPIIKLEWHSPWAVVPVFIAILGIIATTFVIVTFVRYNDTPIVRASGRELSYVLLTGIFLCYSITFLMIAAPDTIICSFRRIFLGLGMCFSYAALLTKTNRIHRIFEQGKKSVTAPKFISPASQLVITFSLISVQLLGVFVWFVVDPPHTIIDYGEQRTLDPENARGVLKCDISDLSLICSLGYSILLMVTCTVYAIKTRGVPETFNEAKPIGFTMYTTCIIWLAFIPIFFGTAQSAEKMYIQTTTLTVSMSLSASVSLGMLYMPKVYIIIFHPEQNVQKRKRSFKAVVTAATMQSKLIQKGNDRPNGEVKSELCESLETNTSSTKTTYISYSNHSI", "assay": "mGluR8 Gi/Go-coupled signaling modulation – cell-based, rat, thallium flux, HTS, primary screen (AID 488969)", "settings": "HEK293 rat mGluR8, GIRK (G protein-gated inwardly rectifying potassium channel) thallium flux, FluoZin2; at 10 µM; stronger effect = higher value; submaximal glutamate (EC20) added with thallium", "values": [
      {"compound": "Cc1cc(=O)oc2cc(OC(=O)CCN3C(=O)c4ccccc4C3=O)ccc12", "z-score": -0.209},
      {"compound": "CCOC(=O)C1=C(C)NC(=O)NC1c1ccc(C)o1", "note": "(configuration not stated)", "z-score": 0.0551},
      {"compound": "Cc1cccc(NC(=S)N2CCN(Cc3ccccc3)CC2)c1C", "z-score": -0.15},
      {"compound": "CC(C)Cc1cc(C(=O)NCc2cccnc2)no1", "z-score": -0.807},
      {"compound": "CCOC(=O)c1c(NC(=S)Nc2cccc(C)c2)sc2c1CC(C)(C)SC2", "z-score": 0.0638},
      {"compound": "O=C1c2cccnc2C(O)N1C1CCCCC1", "note": "(configuration not stated)", "z-score": 0.797},
      {"compound": "O=C(O)C(Cc1ccccc1)NS(=O)(=O)c1ccc2c(c1)OCCO2", "note": "(configuration not stated)", "z-score": -0.105},
      {"compound": "Cc1ccccc1Nc1sc(C(=O)Nc2cccc(Cl)c2)c(N)c1C(N)=O", "z-score": 0.124},
      {"compound": "O=C(NCCCN1CCOCC1)C1COc2ccccc2O1", "note": "(configuration not stated)", "z-score": -0.086},
      {"compound": "Cc1ccccc1CSc1nsc(N)n1", "z-score": 0.11},
      {"compound": "Cc1cc(N2CCN(S(=O)(=O)c3ccc(Cl)cc3)CC2)c2ccccc2n1", "z-score": -0.54},
      {"compound": "C/C(N)=C(/C#N)C(=O)COC(=O)CC1CCCC1", "z-score": 1.77},
      {"compound": "COCCN(C(=O)CCC(=O)Nc1cccnc1)C(C(=O)NC1CCCCC1)c1ccccc1", "note": "(configuration not stated)", "z-score": -0.139},
      {"compound": "O=C1S/C(=C\\c2ccc(N3CCOCC3)o2)C(=O)N1Cc1ccc(F)cc1", "z-score": 0.0599},
      {"compound": "CC12CCC(C(=O)N(CCC#N)CCC#N)(CC1=O)C2(C)C", "note": "(configuration not stated)", "z-score": 0.861},
      {"compound": "O=C(COC(=O)c1ccc(S(=O)(=O)NCc2ccco2)cc1)c1ccccc1", "z-score": 0.134},
      {"compound": "O=C(NNC(=O)c1ccccc1F)c1cccc(Cl)c1", "z-score": 0.0326},
      {"compound": "CC(=O)NCCn1c(SCc2ccccc2C)nc2ccccc2c1=O", "z-score": -0.494},
      {"compound": "CCC1SC2=NC(C)=C(C(=O)OCC(C)C)C(/C=C/c3ccccc3OC)N2C1=O", "note": "(configuration not stated)", "z-score": -0.0643},
      {"compound": "CCOC(=O)COn1c(-c2cccc(Cl)c2)nc2ccc([N+](=O)[O-])cc21", "z-score": 0.359},
      {"compound": "O=C(NCc1cn2ccccc2n1)c1ccc2c(c1)OCO2", "z-score": 0.686},
      {"compound": "Cc1ccc(C(=O)CN2/C(=C(\\O)c3ccccc3)C(=O)c3ccccc3S2(=O)=O)c(C)c1", "z-score": 0.0903},
      {"compound": "O=C1C2CCCN2C(c2ccccc2)N1c1ccc(Cl)cc1", "note": "(configuration not stated)", "z-score": 0.65},
      {"compound": "O=C(c1cccc(Cl)c1)N1CCN(C(=O)c2ccccc2F)CC1", "z-score": -0.331},
      {"compound": "c1ccc(CCn2c(SCc3ccccc3)nnc2-c2ccncc2)cc1", "z-score": 0.133},
      {"compound": "O=C(Nc1nc(-c2cccs2)cs1)C1=COCCO1", "z-score": 0.306},
      {"compound": "CCOC(=O)COc1c(C=O)cc(Br)cc1OC", "z-score": -0.935},
      {"compound": "Cc1c(C(=O)OCC(=O)c2ccc3c(c2)OCCO3)oc2ccccc12", "z-score": -0.038},
      {"compound": "CCN1CCN(C(=S)Nc2cccc([N+](=O)[O-])c2)CC1", "z-score": -0.338},
      {"compound": "CCOc1ccc(C(=O)Nc2nncs2)cc1OCC", "z-score": 0.0568},
      {"compound": "CCOC(=O)N1CCN(C(=O)CSCC(=O)N=c2sc3ccccc3n2C)CC1", "z-score": -0.142},
      {"compound": "CCOc1cc(NC(=S)NCCCN2CCOCC2)c(OCC)cc1NC(=O)C1CC1", "z-score": -0.196},
      {"compound": "COc1cc2c3c(c1)-c1c(sn(-c4cc(OC)ccc4OC)c1=S)C(C)(C)N3C(=O)C2=O", "z-score": -0.000716},
      {"compound": "COC(=O)CNC(=O)c1cccc(F)c1", "z-score": -0.354},
      {"compound": "CCOC(=O)c1sc(N)nc1-c1ccccc1", "z-score": 0.0169},
      {"compound": "COc1ccc(NC(=O)c2ccc(NCCCN3CCOCC3)c([N+](=O)[O-])c2)cc1", "z-score": -0.0464},
      {"compound": "CCc1nnc(SCC(=O)Nc2ccc(N3CCOCC3)cc2)o1", "z-score": -0.0745},
      {"compound": "O=C(CCCOc1ccc(Cl)cc1)NCC1CCCO1", "note": "(configuration not stated)", "z-score": -0.208},
      {"compound": "CC(C)CCNC(=O)CCCOc1ccccc1", "z-score": -0.735},
      {"compound": "COc1ccc2ccccc2c1CNCc1ccccn1", "z-score": 0.77},
      {"compound": "COC(=O)c1ccc(C(=O)OC)c(NC(=O)c2cc3ccccc3o2)c1", "z-score": -0.175},
      {"compound": "COC(=O)c1sccc1NC(=O)C1CC=CCC1C(=O)O", "note": "(configuration not stated)", "z-score": -0.091},
      {"compound": "Cc1cc(-c2[nH]nc3c2C(c2ccc(Cl)cc2)C(C#N)=C(N)O3)c(C)s1", "note": "(configuration not stated)", "z-score": -1.11},
      {"compound": "CCOC(=O)C1CCN(C(=O)c2ccc3c(c2)OCO3)CC1", "z-score": 0.189},
      {"compound": "O=C(O)c1ccc(CSCc2ccccc2F)o1", "z-score": 0.24},
      {"compound": "C=CCn1c(COc2ccccc2F)nnc1SCCN1C(=O)c2ccccc2C1=O", "z-score": -0.095},
      {"compound": "O=C(CSc1ccc(-c2cccs2)nn1)N1CCCCC1", "z-score": -0.229},
      {"compound": "CC1(C)N=C(c2ccccc2)C(=O)N1", "z-score": -0.119},
      {"compound": "COc1ccc(NC(=O)c2ccc3nccnc3c2)cc1", "z-score": -0.263},
      {"compound": "CCC(NC(=O)c1ccccc1NC(=O)c1ccc(C)cc1)C(=O)O", "note": "(configuration not stated)", "z-score": -0.559},
      {"compound": "CC(=O)c1c(O)cc(C)n(Cc2ccccc2)c1=O", "z-score": 0.252},
      {"compound": "COc1ccc(/C=N/S(=O)(=O)c2cccs2)cc1", "z-score": -0.44},
      {"compound": "Cc1snc(SCC(=O)N/N=C(\\N)COc2ccc(F)cc2)c1C#N", "z-score": 0.165},
      {"compound": "COc1ccc(S(=O)(=O)N(Cc2cccs2)C2CCCC2)cc1", "z-score": -0.28},
      {"compound": "CCOC(=O)C(C)CC(C)C(=O)N1CCOCCOCCN(C(=O)C(C)CC(C)C(=O)OCC)CCOCC1", "note": "(configuration not stated)", "z-score": -0.176},
      {"compound": "COc1ccc(N=c2oc3cc(O)ccc3cc2C(=O)NCC2CCCO2)c(OC)c1", "note": "(configuration not stated)", "z-score": -0.403},
      {"compound": "O=C(CN1C(=O)CNC1=O)Nc1cccc(C(F)(F)F)c1", "z-score": -0.0494}
    ]}
  ]
}
